Laboratory results published in PMC4336329 (PLoS ONE, 2015).
The campaign covered roughly 310,000 compounds. About 14,000 (4.5%) showed an effect of 50% or more. The effect is printed as a negative number. This is one part of the list.

target: human ether-à-go-go-related gene (hERG) potassium channel (human, UniProt Q12809); assay: primary screen, population patch clamp on CHO cells stably expressing hERG
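Also: peak tail current of the secondary pulse compared with the same well before compound.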

Sequence of human ether-à-go-go-related gene (hERG) potassium channel (Q12809 whole entry, looked up): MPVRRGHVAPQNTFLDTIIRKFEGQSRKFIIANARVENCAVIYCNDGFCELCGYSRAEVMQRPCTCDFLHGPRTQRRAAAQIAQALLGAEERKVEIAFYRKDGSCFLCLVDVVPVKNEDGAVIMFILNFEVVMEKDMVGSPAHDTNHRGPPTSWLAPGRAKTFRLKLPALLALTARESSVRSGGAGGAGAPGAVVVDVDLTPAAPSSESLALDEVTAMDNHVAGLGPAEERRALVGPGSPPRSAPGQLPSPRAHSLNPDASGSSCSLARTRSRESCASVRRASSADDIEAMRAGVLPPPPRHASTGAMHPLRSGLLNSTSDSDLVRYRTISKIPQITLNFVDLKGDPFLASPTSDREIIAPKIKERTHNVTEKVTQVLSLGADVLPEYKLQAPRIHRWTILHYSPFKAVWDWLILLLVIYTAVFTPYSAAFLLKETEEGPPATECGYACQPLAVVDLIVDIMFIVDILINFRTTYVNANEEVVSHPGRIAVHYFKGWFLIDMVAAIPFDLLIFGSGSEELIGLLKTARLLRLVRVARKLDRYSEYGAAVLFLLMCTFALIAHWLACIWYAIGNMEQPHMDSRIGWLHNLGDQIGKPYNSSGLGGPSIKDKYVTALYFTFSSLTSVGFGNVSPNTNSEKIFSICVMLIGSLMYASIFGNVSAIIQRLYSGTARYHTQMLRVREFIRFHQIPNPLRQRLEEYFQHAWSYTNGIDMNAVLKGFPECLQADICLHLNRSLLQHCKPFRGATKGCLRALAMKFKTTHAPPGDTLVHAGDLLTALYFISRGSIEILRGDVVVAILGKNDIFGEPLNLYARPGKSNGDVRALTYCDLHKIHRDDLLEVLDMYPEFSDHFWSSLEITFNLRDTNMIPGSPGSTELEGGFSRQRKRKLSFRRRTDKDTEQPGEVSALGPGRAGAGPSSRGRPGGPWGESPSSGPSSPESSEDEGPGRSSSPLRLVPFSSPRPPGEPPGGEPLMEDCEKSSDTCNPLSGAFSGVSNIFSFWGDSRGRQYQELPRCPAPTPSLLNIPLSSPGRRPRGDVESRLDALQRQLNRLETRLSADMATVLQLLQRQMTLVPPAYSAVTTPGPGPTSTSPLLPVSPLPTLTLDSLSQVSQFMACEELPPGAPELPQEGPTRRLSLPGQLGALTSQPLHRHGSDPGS

Compound	hERG current change (%, negative = inhibition) at 10uM [%]
CCCc1cc(=O)[nH]c(SCC(=O)Nc2nc(-c3ccccc3)cs2)n1	11.7
Cc1ccc(C(=O)OCC(=O)NCCC2=CCCCC2)s1	3.2
C=CCNC(=O)/C(C#N)=C/c1c(N2CCN(c3ccc(OC)cc3)CC2)nc2c(C)cccn2c1=O	-27.4
COc1cccc(NC(=S)NC(=O)Cc2ccccc2)c1	-22.2
c1ccc(C[C@H]2CNCCN2CCC23CC4CC(CC(C4)C2)C3)cc1	-4.46
CC(C)CCOC(=O)C1C2C=CC3(CN(Cc4cccs4)C(=O)C13)O2 (centres unmarked)	10.7
CC12CC[C@H]3[C@@H](CCC4(O)C[C@H](O)CCC34/C=N/NC(=O)c3ccccc3[N+](=O)[O-])C1(O)CCC2C1=CC(=O)OC1 (some centres unmarked)	5.28
Cn1cccc1/C=N\NC(=O)C1COc2ccccc2O1 (centres unmarked)	3.89
COc1ccccc1NC(=O)CCC(=O)Nc1cc(OC)c(NC(=O)c2cccs2)cc1OC	-11
COC(=O)c1[nH]c2cccc(OC)c2c1NC(=O)CCN1CCC(C)CC1	-12.2
Cc1ccc(-n2cc(C(=O)c3cc(Cl)ccc3O)cc(C#N)c2=O)cc1	-3.3
Cc1cc(C)c(S(=O)(=O)N(C)CC(=O)NC2CCCC2)c(C)c1	0.347
O=C(Nc1cccc(C(F)(F)F)c1)N(Cc1ccc(Cl)cc1)CC(O)C(F)(F)F (centres unmarked)	-0.617
O=C(Nc1ccnn1C1CCN(C(=O)c2cccc(C(F)(F)F)c2)CC1)C1CC1	24.6
COc1ccc(/C=C2/N=C(c3cccs3)OC2=O)cc1OC(C)C	14.3
CN(Cc1ccccc1)S(=O)(=O)c1ccc2c(c1)n(C)c(=O)c(=O)n2C	6.38
Cc1ccnc(N/N=C/c2ccco2)n1	21.5
Clc1ccc(-c2nnc3n2CCCC3)cc1	14.3
CCOc1cccc(NCc2cc3c(C(C)(C)C)nn(-c4ccccc4)c3[nH]c2=O)c1	4.56
COc1ccc2c(c1)OC1(C)CC2C(C(=O)c2ccccc2OC)C(=O)N1 (centres unmarked)	7.88
CCOC(=O)C1CCN(C(=O)c2cccc(NS(=O)(=O)c3ccc(F)c(F)c3)c2)CC1	-16.8
C=CCOc1ccc(-c2nc3c(c(=O)[nH]c(=O)n3CCC)n2CCCC)cc1	-5.34

Compound	hERG current change (%, negative = inhibition) at 10uM [%]
CCCCn1nc(CC(=O)NCCN(CC)CC)c2ccccc2c1=O	2.16
Cc1cc(/C=C(\C#N)C(=O)NCc2cccs2)c(C)[nH]1	40.7
O=C(O)CCCNC(=O)c1cccc(C(=O)NCCCC(=O)O)n1	11.4
Cc1nc2nc(C)c(CCC(=O)Nc3ccc4c(c3)OCO4)c(C)n2n1	-18
CCC(C)[C@H](NC(=O)N1CCn2c1nc1ccccc12)C(=O)NCCc1ccc(OC)c(OC)c1 (some centres unmarked)	-3.1
CN1CCN(c2nc(-c3cccnc3)nc3scc(-c4ccccc4)c23)CC1	-37.7
CC(C)(C)c1ccc(S(=O)(=O)N2CCC(CO)(CC3CCCCO3)CC2)cc1 (centres unmarked)	-15.4
Cc1ccc(C)c(OCCC(=O)NCCc2ccc(S(N)(=O)=O)cc2)c1	10.7
Cc1ccc(C)c(S(=O)(=O)c2c(C)cc(C)[nH]c2=O)c1	25
Cc1ccccc1C(=O)NCC(=O)OC(C)C(=O)Nc1ccnn1C(C)C (centres unmarked)	-2.39
CNC1(c2nnnn2-c2ccccc2C)CCOC(C)(C)C1 (centres unmarked)	19.5
COc1ccc(CNC(=O)C2CCN(S(=O)(=O)c3ccc4c(c3)N(C(C)=O)CCO4)CC2)cc1	-40.5
O=C(CSc1nnc(C2CC2)n1-c1ccccc1)NCc1ccco1	5.39
CC1(C)Cc2cccc(OCC(=O)Nc3cc(S(C)(=O)=O)ccc3Cl)c2O1	12.4
COc1ccc(CC2(C)OC(c3ccncc3)=NN2C(C)=O)cc1 (centres unmarked)	0.737
Cn1c(=O)c2c(ncn2CC(=O)OCC(=O)Nc2cc(Cl)ccc2Cl)n(C)c1=O	-21.7
Cn1c(=O)oc2cc(S(=O)(=O)CCC(=O)N3CCN(c4ccccc4)CC3)ccc21	10.9
CC(=O)Nc1ccc(-c2csc(Nc3cc(C)ccn3)n2)cc1	2.57
Cc1onc(-c2ccccc2)c1C(=O)N/N=C/c1cn(C)c2ccccc12	4.18
O=c1[nH]nc(SCCS(=O)(=O)c2ccc(F)cc2)n1-c1ccc2c(c1)OCCO2	5.22
COc1cc(C(=O)N2CCN(C(=O)COc3ccc4ccccc4c3)CC2)cc(OC)c1OC	-73
Cc1cc(S(N)(=O)=O)c(N)c(S(N)(=O)=O)c1	2.55

Compound	hERG current change (%, negative = inhibition) at 10uM [%]
Cc1cccc(C(=O)NC2CCN(C(=O)N3CCOCC3)CC2)c1	22.3
COCON1C(=O)CN(C(C)=O)C1c1ccc(Cl)cc1Cl (centres unmarked)	11.4
Cc1c(C)[n+](=O)c(-c2cccs2)c(C)n1[O-]	20.5
CCCC1=Nc2cc(C(=O)NCCCN3CCN(C)CC3)ccc2Sc2ccccc21	-16.6
CC1CCC2(CC1)NC(=O)N(Cc1cc(=O)n3ccsc3n1)C2=O (centres unmarked)	-8.8
CCCN(CCC)CCCNc1ccc(C(=O)Nc2cccc(OC)c2)cc1[N+](=O)[O-].Cl	-76.3
O=C(NCCc1nnc2ccc(SCC(=O)N3CCCC3)nn12)c1ccccc1	6.64
Cc1cc(C)cc(-c2nnc(SCc3ccc(C(=O)O)cc3)o2)c1	-74
CCc1ccc(C(=O)NNC(=O)C2CC(=O)N(Cc3ccccc3)C2)cc1 (centres unmarked)	-16.8
Cc1ccc(NC(=O)NC(=O)CN2C(=O)NC3(CCCCCCC3)C2=O)c(C)c1	21
Cl.O.O=C1Cc2ccccc2Sc2c(OCCN3CCCCC3)cccc21	-63.4
CC(=O)NCCNC(=O)c1ccc2c(c1)S(=O)(=O)c1ccccc1C2=O	5.42
CC(C)C1Nc2ccc(S(N)(=O)=O)cc2C2C=CCC21 (centres unmarked)	5.89
O=C1Nc2c(Br)cc(Br)c3cccc1c23	18.8
O=C(Nc1ccc2ccccc2c1)c1ccc(NS(=O)(=O)c2ccc(Br)s2)cc1	12
O=C(c1n[nH]c(=O)c2ccccc12)N1CCN(c2ccc(F)cc2)CC1	-17.4
CN1CCc2nc3sc(C(=O)NCc4ccccc4)c(N)c3cc2C1	-47.1
COc1ccc2c(c1)C1C=CCC1C(c1cc3c(cc1Br)OCO3)N2 (centres unmarked)	1.4
CCOc1ccc(N2C(=O)CC(N3CCN(c4ccccc4OC)CC3)C2=O)cc1 (centres unmarked)	-0.741
S=C(NCCCN1CCOCC1)N1CCN(c2cccc(Cl)c2)CC1	-40.2
O=C(Cc1ccc(F)cc1)N(c1ccc(F)cc1)C1C=CS(=O)(=O)C1 (centres unmarked)	2.59
CN1CCN(CC(=O)n2c3c(c4ccccc42)CCCC3)CC1.Cl	-19.2

Compound	hERG current change (%, negative = inhibition) at 10uM [%]
Cc1cc(=O)oc2cc(OCC(O)CN3CCN(c4ccc(F)cc4)CC3)ccc12 (centres unmarked)	-37.7
COc1ccccc1NC(=O)CCCCCN1C(=O)c2cccc3cccc(c23)C1=O	8.9
CCCCCn1c(CN2CC(C)OC(C)C2)nc2c1c(=O)n(C)c(=O)n2C (centres unmarked)	-5.47
COc1cc(NC(=O)Nc2cccc(Cl)c2)c(C(=O)O)cc1OC	18
COCCn1c(-c2cc(OC)c(OC)c(OC)c2)nc2oc3cc(OC)ccc3c(=O)c2c1=O	3.38
COc1ccc(COC(=O)c2cc([N+](=O)[O-])ccc2N2CCOCC2)cc1F	-62.5
N#C/C(=C\c1ccccc1Cl)C(=O)NC(=O)Oc1ccccc1	19
CC(C)CC(NS(=O)(=O)c1ccc2c(c1)oc(=O)n2C)C(=O)NCc1cccnc1 (centres unmarked)	13.8
O=C(O)Cc1ccc(C(=O)c2ccc(F)cc2)s1	10.3
COc1ccc2c(c1OC)C(=O)N(c1ccc(C)cc1)C2=O	1.65
CCc1c(C)nc2ncnn2c1N1CCC(C(=O)NCc2cccs2)CC1	-44.4
COc1cc(C(C)=O)ccc1O	7.26
COC(=O)C(NS(C)(=O)=O)(c1c(C)[nH]c2ccccc12)C(F)(F)F (centres unmarked)	-1.63
COc1ccc(CCNCc2ccccc2N2CCCC2)cc1.O=C(O)C(=O)O	-41.8
CC(C)(C)c1ccc(C(=O)NCc2nnc(SCC(=O)NC3CCCC3)o2)cc1	1.85
O=C(NCc1nnc(SCC(=O)N2CCN(c3ccccc3)CC2)o1)c1ccco1	2.64
CC(OC(=O)c1cccs1)C(=O)NCCc1ccccc1 (centres unmarked)	15.8
COc1ccc(C2Nc3ccccc3C(=O)N2Cc2ccccc2)cc1CSc1ccccn1 (centres unmarked)	3.07
CCCN1C(=S)SC(C)(C)C1/[N+]([O-])=C/c1ccc(S(=O)(=O)NC)cc1 (centres unmarked)	8.01
CCCCCCCC(=O)NNC(=O)c1ccc([N+](=O)[O-])cc1	-20.6
